Results: publication doi:10.1101/2023.06.21.545551 (2023)

Molecular target: MYC(203–255) (human)
Experiment: NMR

B1: MYC([…]):MAX([…]) heterodimer (complex)
chain 1: not shown
chain 2: not shown
Question: B1 was tested. Which Kd did it give?
Answer: 49 µM
